# Data: the supplement of paper PMC12217912
# The other results are listed elsewhere or left out. The full chains were built here from the parent and the listed change. Values near 0.05 are background.
# B1: TEV protease; numbered along this chain (parent)
# chain: MGESLFKGPRDYNPISSSICHLTNESDGHTTSLYGIGFGPFIITNKHLFRRNNGTLVVQSLHGVFKVKDTTTLQQHLVDGRDMIIIRMPKDFPPFPQKLKFREPQREERICLVTTNFQTKSMSSMVSDTSCTFPSGDGIFWKHWIQTKDGQCGSPLVSTRDGFIVGIHSASNFTNTNNYFTSVPKNFMELLTNQEAQQWVSGWRLNADSVLWGGHKVFMVKPEEPFQPVKEATQL
# Variants of: B1
# Test: raw area under fraction-flipped curve 0-4 h after induction (AUC4h, not background-subtracted), DNA-recorder readout of cleavage of the substrate (dimensionless); higher = more cleavage of the substrate by the protease variant
# Settings: temperature: 34 °C; time window: 0-4 h after rhamnose induction
# Protocol: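 In vivo DNA recorder in E. coli TOP10(DE3) ΔrhaA at 34 °C. Each TEVp single-site mutant (parent TEVp 0) is paired with a single-site variant of the 7-mer TEVs (canonical ENLYFQ|S). The substrate sits between flexible linkers in a Bxb1-sfGFP-TEVs-SsrA fusion, so cleavage stabilises Bxb1 and speeds flipping of a recombination array, read by NGS. The value is the raw area under the fraction-flipped curve over 0-4 h after rhamnose induction (AUC4h), with ≥20 reads per time point. It is not background-subtracted; inactive controls average about 0.047.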
# 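Further: Bxb1 expression induced with 0.2% (w/v) L-rhamnose at OD600 near 0.5, cultures sampled hourly, flipped fraction per protease–substrate barcode pair counted by paired-end Illumina sequencing.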
Variant,area with substrate CNLYFQS,area with substrate DNLYFQS,area with substrate HNLYFQS,area with substrate KNLYFQS,area with substrate LNLYFQS,area with substrate PNLYFQS,area with substrate SNLYFQS,area with substrate TNLYFQS,area with substrate VNLYFQS,area with substrate WNLYFQS,area with substrate YNLYFQS,area with substrate FNLYFQS,area with substrate GNLYFQS,area with substrate MNLYFQS,area with substrate NNLYFQS,area with substrate RNLYFQS,area with substrate INLYFQS,area with substrate QNLYFQS
V210L,0.0441,0.0535,0.0536,0.0881,0.0588,0.0453,0.064,0.076,0.0781,0.0626,0.0588,,,,,,,
V210Q,0.0647,0.0595,0.0628,0.0616,0.0613,0.0655,0.0663,0.0676,,0.0539,0.0557,0.0609,0.067,0.0545,0.0627,0.055,,
V210S,0.0541,0.0534,,0.0565,,,,0.0552,,0.0634,0.0457,0.035,0.0601,0.0417,0.0803,,0.0567,
L211H,0.0994,0.0778,0.071,,0.0534,,0.0724,,,0.0689,,,,0.0655,,,,
L211P,0.0614,0.0742,,,0.0522,0.0512,,,,,,0.06,0.0574,0.0431,,,,
W212Q,0.0778,0.0449,0.0529,0.0709,0.0452,0.059,0.0633,,,0.0527,0.0546,0.0619,0.0642,0.0626,0.0625,0.0664,0.058,0.0484
G213L,0.0618,0.0613,,,0.0626,0.0479,,0.0491,0.0479,0.0592,0.0778,0.0498,,,0.0499,,0.0595,
G214Y,0.0517,0.0596,,,0.0667,,,0.0687,,0.0615,,,,,,,0.0633,
V217D,0.0537,0.0591,0.0557,0.0585,,,0.0542,0.0448,0.0558,0.0572,,,0.0726,,0.0497,,0.0548,
M219G,0.0514,0.0771,0.0535,0.0581,0.0592,0.0551,,0.0536,0.0535,0.0461,0.0619,0.0505,0.0665,0.061,0.0826,0.0494,0.0658,0.0657
M219I,0.0644,0.0893,0.0633,0.0641,0.0677,0.0555,0.0663,0.0649,,,0.0546,0.0391,0.009,0.0543,0.0534,,0.0555,
M219Y,0.0718,0.103,,0.0677,,,0.0678,0.0691,,0.0561,,,,,0.0649,,,
V220C,0.0702,0.0569,0.0683,0.0656,0.072,0.0692,,0.0634,0.0681,0.0563,0.0483,0.0489,,0.0714,0.0654,,,
V220D,0.0687,0.0704,0.07,0.0556,0.0471,0.0566,0.0573,0.0693,0.0776,,,0.0692,0.0736,0.0722,,,0.0791,
V220N,0.0654,0.0696,0.0593,0.0773,,0.0779,,0.0787,0.0803,,0.0663,0.0488,,0.0666,0.0579,,0.0554,
